Laboratory results taken from ChEMBL document CHEMBL4888484, “Replenishing the malaria drug discovery pipeline: Screening and hit evaluation of the MMV Hit Generation Library 1 (HGL1) against asexual blood stage Plasmodium falciparum ,using a nano luciferase reporter read-out” (2022).
Screen size: about 4,800 compounds; about 410 (8.5%) showed an effect of 50% or more. The list shows a part of the results.

These compounds were tested on Plasmodium falciparum (assay: Confirmatory screen in NF54 pLDH assay, in single point, at 2uM, 72h). Settings: timepoint 72 hour.
Type: functional, Erythrocyte
In the case of `COCc1cc(C(=O)N[C@H](c2ccccc2)C2CCOCC2)no1`, the “% Inhibition” value is reported as 8%.
In the case of `O=C(Nc1ccc(N2CCOCC2)nc1)c1cccs1`, the “% Inhibition” value is reported as -11%.
`COc1ccc(COC(=O)c2cccnc2C)cn1` was tested, and the “% Inhibition” value was -12%.
`CCOC(=O)n1c(=O)[nH]c2ccc(Br)cc21` was tested, and the “% Inhibition” value was -18%.
`CNS(=O)(=O)CC(=O)Nc1cc(Br)c(F)cc1F` was tested, and the “% Inhibition” value was -14%.
`Cc1ncsc1C(=O)Nc1cccc(S(=O)(=O)N2CCC(CO)CC2)c1` was tested, and the “% Inhibition” value was 7%.
In the case of `Cn1ncc2nnn(-c3ccccc3)c(=O)c21`, the “% Inhibition” value is reported as 1%.
In the case of `Cc1nn(Cc2ccccc2)c2nc(C3CC3)cc(C(=O)N3CCOCC3)c12`, the “% Inhibition” value is reported as 1%.
`Cc1cc(C)nc(OC(C(=O)O)C(OCc2ccccc2)(c2ccc(C(F)(F)F)cc2)c2cccc(C(F)(F)F)c2)n1` (stereo unspecified) was tested, and the “% Inhibition” value was 2%.
`CCn1c(=O)c(N2CCN(C(=O)Nc3cccc(C(F)(F)F)c3)CC2)nc2ccccc21` was tested, and the “% Inhibition” value was 11%.
For `Cc1c(Nc2[nH]cnc3ncnc2-3)c(=O)n(-c2ccccc2)n1C`, the “% Inhibition” value was -24%.
With `CNc1nc(C)nc(O)c1Br` the “% Inhibition” value was 9%.
`CC(C)Nc1cccc(CNC(=O)N2CCOC[C@@H]2C)c1` was tested, and the “% Inhibition” value was -14%.
With `COc1ccc(CNC(=O)Cn2c(=O)n(Cc3cccc(OC)c3)c(=O)c3sccc32)cc1` the “% Inhibition” value was 14%.
In the case of `O=C(O)c1nccn1CNc1ccncc1`, the “% Inhibition” value is reported as 2%.
For `CC1(C)CC(=O)C(CC(=O)N2CCCCC2)(Cc2ccccc2)C(=O)C1`, the “% Inhibition” value was 12%.
In the case of `CCOC(=O)C(Nc1cccc(NC(C(=O)OCC)C(=O)OCC)c1)C(=O)OCC`, the “% Inhibition” value is reported as -21%.
`CNc1nc(-c2ccccc2)nnc1C(F)(F)F` was tested, and the “% Inhibition” value was 11%.
With `CCN(C(=O)Cn1ncn2nc(-c3cccc4ccccc34)cc2c1=O)c1ccccc1` the “% Inhibition” value was 11%.
In the case of `O=C(C[C@@]1(O)C(=O)N(Cc2ccc(Cl)cc2Cl)c2ccccc21)c1ccccn1`, the “% Inhibition” value is reported as -4%.
For `CCn1nc(C)c(CN(C)C(=O)c2nn3cccnc3c2Cl)c1C`, the “% Inhibition” value was 3%.
With `CCCc1noc([C@H](C)OC(=O)c2cc[nH]n2)n1` the “% Inhibition” value was 4%.
With `CC1(C)C[C@@](CCNCc2ccc(Cl)cc2)(Cc2ccccc2Cl)CCO1` the “% Inhibition” value was -16%.
`O=C(O)CCCC(=O)NCCc1ccc(Cl)cc1` was tested, and the “% Inhibition” value was -19%.
`Cc1ccc(OCc2cccc(-c3nc4c5cn[nH]c5ncn4n3)c2)c(C)c1` was tested, and the “% Inhibition” value was 5%.
`CC(C)(C)c1cc(C[C@H]2CNCC[C@H]2CC(=O)N2CCC(Cc3ccccc3)CC2)no1` was tested, and the “% Inhibition” value was 24%.
`CC(C)(C)C(=O)N1CCC(O)(CS(=O)(=O)Cc2ccc(Cl)cc2)CC1` was tested, and the “% Inhibition” value was 7%.
In the case of `COc1cccc(C2=NS(=O)(=O)N(C)C(C(=O)N3CCC(C(N)=O)CC3)=C2)c1`, the “% Inhibition” value is reported as 0%.
`COc1cc(C(=O)N2CCN(c3ccccc3)CC2)cc2occc12` was tested, and the “% Inhibition” value was 5%.
With `c1nc2nc[nH]c(NC3CCCCC3)c-2n1` the “% Inhibition” value was 7%.
For `Cc1n[nH]c(C)c1NC(=O)C1=NO[C@@H](CNC(=O)OC(C)(C)C)C1`, the “% Inhibition” value was 13%.
With `COc1ccc(OC)c(NC(=O)Cn2cnc3nc(N4CCOCC4)ncc3c2=O)c1` the “% Inhibition” value was 15%.
With `CC1(C(=O)NC(C#N)c2cccc(Cl)c2)CC2CCC1O2` (stereo unspecified) the “% Inhibition” value was 0%.
In the case of `Cc1cccc([C@@H](NC(=O)Nc2ncco2)C(F)(F)F)c1`, the “% Inhibition” value is reported as -15%.
In the case of `CCc1ccc(-c2cc3c(=O)n(CC(=O)N4CC(C)CC(C)C4)ncn3n2)cc1` (stereo unspecified), the “% Inhibition” value is reported as 11%.
In the case of `CCCCn1nnc(N(C(=O)c2cccc3c(Br)cccc23)C(=O)c2cccc3c(Br)cccc23)n1`, the “% Inhibition” value is reported as 0%.
With `COc1ccc(C(O)CN2CCC(c3ccccc3)C2)cc1F` (stereo unspecified) the “% Inhibition” value was 9%.
For `Cc1ccc(OCCCOc2ccc(CO)nc2)cc1C`, the “% Inhibition” value was 8%.
In the case of `Cc1ccc2c(c1)C(NC(c1cccnc1)c1ncc[nH]1)CCC2` (stereo unspecified), the “% Inhibition” value is reported as 2%.
For `O=C(C1CC1c1ccccc1)N1CCC(c2nc3ccccc3o2)CC1` (stereo unspecified), the “% Inhibition” value was 10%.
For `CC1=CC(=[N+](CCO)CCO)C=C/C1=C(\c1ccc(N(CCO)CCO)cc1C)c1ccccc1Cl`, the “% Inhibition” value was 87%.
`Cc1nc(N2CCC(C)CC2)ncc1-c1cc(=O)[nH]c(Nc2ccccc2)n1` was tested, and the “% Inhibition” value was -13%.
For `CCOC(=O)c1cn(CC)c2cc(NC3CCCCC3)c(F)cc2c1=O`, the “% Inhibition” value was 69%.
`O=C(N[C@H](c1ccccc1)C1CC1)c1cccnc1O` was tested, and the “% Inhibition” value was 1%.
With `CN(C)c1nc(N)nc(CN2CCOc3ccc(F)cc32)n1` the “% Inhibition” value was 13%.
With `CCc1nc(C)nc(N2CCN(C[C@H](O)COc3ccccc3C)CC2)c1Cc1cccc(C)c1` the “% Inhibition” value was 9%.
In the case of `CC(C)CCn1nnnc1[C@]1(N(C)C)CCCN(C(=O)c2cccn2C)C1`, the “% Inhibition” value is reported as -12%.
For `O=C(Nc1ccc(Cc2ccc(NC(=O)c3ccc(Br)cc3)c(O)c2)cc1O)c1ccc(Br)cc1`, the “% Inhibition” value was 11%.
In the case of `Cc1c(CN2CCc3ccccc32)cnn1C`, the “% Inhibition” value is reported as 10%.
`C[C@@H](C(=O)Nc1cc(C(F)(F)F)c[nH]c1=O)n1cc(Cl)cn1` was tested, and the “% Inhibition” value was -18%.
`CS(=O)(=O)N[C@H]1CCCN(c2ncc(-c3ccccc3)s2)C1` was tested, and the “% Inhibition” value was -16%.
`O=C(NCC1CCCN(C(=O)C2CC3CCC2C3)C1)Nc1cccc(F)c1` (stereo unspecified) was tested, and the “% Inhibition” value was 4%.
For `c1ncc(N2CCN3CCC[C@H]3C2)nc1OCC1CCCC1`, the “% Inhibition” value was -16%.
With `Cc1cc(C)cc(-n2c(=O)c3sccc3n(CC(=O)Nc3ccc(N(C)C)cc3)c2=O)c1` the “% Inhibition” value was -16%.
For `Nn1c(-c2ccccc2)c(-c2ccccc2)c(-c2ccccc2)cc1=O`, the “% Inhibition” value was -19%.
In the case of `O=C(Nc1ccc2c(c1)OCCO2)N1CCN(c2nc3cccnc3n(Cc3ccccc3)c2=O)CC1`, the “% Inhibition” value is reported as -16%.
In the case of `O=C(Nc1cn[nH]c1)C(=O)Nc1ccc(F)c(F)c1F`, the “% Inhibition” value is reported as -8%.
For `O=C(Nc1n[nH]c(Cc2cccc(F)c2)n1)[C@@H]1CCCc2[nH]ncc21`, the “% Inhibition” value was 6%.
In the case of `COCc1cc2nn(CC(=O)Nc3ccc(F)c(F)c3)c(=O)n2c(-c2ccccc2)n1`, the “% Inhibition” value is reported as -15%.
For `CCOC(=O)COc1cc(N)c(F)cc1Cl`, the “% Inhibition” value was -9%.
In the case of `O=C(CNC(=O)OCc1ccccc1)Nc1ccc(F)cc1`, the “% Inhibition” value is reported as -21%.
With `CCCC(=O)N1CCN(c2c(C)n(-c3ccccc3)c(=O)n(C)c2=O)CC1` the “% Inhibition” value was 11%.
In the case of `Cc1cc(Br)ccc1N1CC[C@@H](C(=O)NC2CC2)C1=O`, the “% Inhibition” value is reported as 4%.
With `Cc1c(C(=O)NC2CC2)cc(-c2ccccc2)n1C` the “% Inhibition” value was 6%.
With `COC(=O)c1ccccc1NC(=O)[C@@H]1C(=O)N(c2ccc(Cl)cc2)N=C1C` the “% Inhibition” value was 8%.
With `CN1CCC(Nc2ncnc3c2cnn3C)C1c1ccc(Cl)cc1` (stereo unspecified) the “% Inhibition” value was 12%.
`COC(=O)C1NS(=O)(=O)c2ccc(Cl)cc2C1(O)c1ccccc1F` (stereo unspecified) was tested, and the “% Inhibition” value was 4%.
With `COc1cc(NS(=O)(=O)c2ccc(-n3cnnn3)cc2)nc(OC)n1` the “% Inhibition” value was 9%.
With `Brc1cccc(-c2ccc(-c3cc(-c4ccccc4)nnc3-c3ccccc3)o2)c1` the “% Inhibition” value was 6%.
With `O=C(Cc1ccc(Oc2nccc(C(F)(F)F)n2)cc1)NCCO` the “% Inhibition” value was 7%.
With `CN(C)c1c(F)c(F)c2cc3c(C(C)(C)C)nn(C)c3nc2c1F` the “% Inhibition” value was 17%.
`Cc1ccccc1C(=O)N(Cc1cccc(F)c1)c1ccc(CC(=O)NCCN2CCCCC2)cc1` was tested, and the “% Inhibition” value was 39%.
With `O=C([C@H]1CCCN(C(=O)N2CCc3sccc3C2)C1)N1CCc2[nH]ncc2C1` the “% Inhibition” value was -7%.
In the case of `CC[C@@]1(c2ccc(NC(=O)Cc3c[nH]c4ccccc34)cc2)CCC(=O)NC1=O`, the “% Inhibition” value is reported as -4%.
With `O=S1(=O)NC(c2cccc(F)c2)=Nc2ccc(S(=O)(=O)N3CCOCC3)cc21` the “% Inhibition” value was -11%.
With `O=C(Nc1cc(NC(=O)c2ccc(F)cc2)cc(Oc2cccnc2)c1)c1ccc(F)cc1` the “% Inhibition” value was 5%.
For `CN(Cc1nnc[nH]1)C(=O)C1(C)CCC1`, the “% Inhibition” value was -9%.
`COc1ccc(C2=CN(CC(=O)c3ccc(Cl)cc3)C3=CCCCCN23)cc1` was tested, and the “% Inhibition” value was 41%.
`Cc1nc(-c2cccnc2)nc(NCCNC(=O)C(C)(C)C)c1C` was tested, and the “% Inhibition” value was 5%.
In the case of `CN(C)c1ccc(Nc2ccc(F)cc2S(=O)(=O)C(F)(F)F)cn1`, the “% Inhibition” value is reported as -1%.
`COCCOc1ccc2c(n1)CCN(C(=O)c1ccc(OC)c(OC)c1)C2` was tested, and the “% Inhibition” value was -8%.
For `O=S(=O)(c1cccc(Cl)c1)N1CCc2nc(N3CCCCC3)nc(Oc3ccccc3)c2C1`, the “% Inhibition” value was 78%.
In the case of `O=S(=O)(Nc1ccc(F)cc1OCC1CC1)c1cn[nH]c1`, the “% Inhibition” value is reported as -6%.
For `COc1cccc(-c2cc(O)cc(CC[C@H]3CCCCN3)c2)n1`, the “% Inhibition” value was 89%.
With `c1coc(CNc2nc(Nc3cccc4ccccc34)nc3ccccc23)c1` the “% Inhibition” value was 50%.
For `CC1CCN(C(=O)c2c(-c3ccccc3)nc3n2CCS3(=O)=O)CC1`, the “% Inhibition” value was -6%.
In the case of `O=C1C[C@@]2(CCCN(c3nc(C4CC4)ns3)C2)CN1`, the “% Inhibition” value is reported as -7%.
`COCCC(=O)N1CC[C@H](c2nc(C3CCOCC3)no2)C1` was tested, and the “% Inhibition” value was 6%.
`CCC1(CC)NC(=O)N(CC(=O)Nc2cccc(CC(=O)OC)n2)C1=O` was tested, and the “% Inhibition” value was -20%.
In the case of `Cc1cc(Cl)ccc1OCc1cccc(-c2nc3c4cn[nH]c4ncn3n2)c1`, the “% Inhibition” value is reported as 8%.
`O=C(Nc1ccc(C(F)(F)F)cc1)N1CCN(CC(O)C2CCCO2)CC1` (stereo unspecified) was tested, and the “% Inhibition” value was 10%.
In the case of `Cc1cc(C)c(OC(=O)c2ccc(Cl)cc2Cl)c(CNC(=O)c2ccccc2)c1`, the “% Inhibition” value is reported as -15%.
`CCOC(=O)C1(C(=O)OCC)CN(c2ccccc2)[C@H](C(=O)OC)C1(C(=O)OCC)C(=O)OCC` was tested, and the “% Inhibition” value was 11%.
`Cc1ccc(-c2cc3c(N4CC=C(c5ccccc5)CC4)nccn3n2)c(C)c1` was tested, and the “% Inhibition” value was 14%.
`COc1ccc(C)cc1NC(=O)N1CC(c2nc(C(C)C)nn2C)C1` was tested, and the “% Inhibition” value was 1%.
With `CCO[C@H]1C[C@H](NC(=O)Nc2ccc(F)c(C3CC3)c2)C1` the “% Inhibition” value was 8%.
With `Cn1ccc(CN2CCN(c3ccccc3)CC2)n1` the “% Inhibition” value was 6%.
In the case of `Cc1nnc2sc(-c3cnn(-c4ccccn4)c3C(F)(F)F)nn12`, the “% Inhibition” value is reported as -4%.
In the case of `CN(C(=O)c1ccc2ncsc2c1)c1ccccc1`, the “% Inhibition” value is reported as -12%.
In the case of `O=c1[nH]c(=O)n(S(=O)(=O)c2ccccc2)cc1F`, the “% Inhibition” value is reported as 87%.
For `Cc1ccc(-c2cc(C(=O)Nc3nnc(C(C)C)s3)no2)cc1F`, the “% Inhibition” value was 16%.
